Sequences and labels used below:
T1: UNK ZnF1-3 (human, UniProt Q9C0B0 31-174)
T1 sequence: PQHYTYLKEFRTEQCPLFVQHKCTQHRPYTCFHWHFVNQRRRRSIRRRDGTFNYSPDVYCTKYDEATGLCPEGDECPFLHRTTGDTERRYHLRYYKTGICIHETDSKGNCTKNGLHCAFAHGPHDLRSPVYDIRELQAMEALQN

B1: chr1:39494564:39494565:+_ENSG00000168653_ENST00000372967|hu_hu|hu_hu_hu_mus_True|1_68 (ssRNA)
RNA: GGGAGUUCUACAGUCCGACGAUCAUGCAUUCGCCUCAUCGUUUUGUACCGAAGCAAGCACUCUUCGAAAUCAUCAUACUCUAUCUUGCACUCCUUUUUCGCCCGGGUCCCACCGAUCCCGUGUGCACACUCUAUCCAUUCUUUCAACAGAGGAUUGAGCAUCA
B2: 57685957_57686077_494_CDS_ENSMUSG00000054843_ENSMUST00000077282|mouse|control|control (ssRNA)
RNA: GGGAGUUCUACAGUCCGACGAUCGCAGGUGGAGUUGACACAGCGACCGGAGAAGCAGGAGCCAGUCCUCUCGCAGGGCUUGGACUGGGACACCUGAGCAUAGAGCGCCAGGUAGAGGAAGCCAUAGCACAGCAGCCAGCUGUUCAACAGAGGAUUGAGCAUCA
B3: chr2:202488911:202488912:-_ENSG00000155755_ENST00000286196|hu_mus|hu_hu_hu_mus_False|1_98 (ssRNA)
RNA: GGGAGUUCUACAGUCCGACGAUCAUUGAAACAUUUUCAUAAUAUUGCAGUAGCAUUUCAGCAUUAUGUAACAAAAGCUCAAUUGUAAAUACAUGUAUCUUAUAAAAAUACACUUAAAAACACGAGUGGGGAGCGCACAAAUACCAACAGAGGAUUGAGCAUCA
B4: chr4:57314706:57314707:+_ENSG00000128050_ENST00000264221|hu_mus|hu_hu_hu_mus_True|38_48 (ssRNA)
RNA: GGGAGUUCUACAGUCCGACGAUCCAGAAUUUCAAAAAUAGCUUGUGUGGCAUGACUCAUGAUGUCCACUUCAGUCUGCCCUAUAACAAGUCCAGCAAAGCAAAAUUUUGCAGCAAUGAGUUGCUCCUCAGACCACUGUGGAUCCAACAGAGGAUUGAGCAUCA
B5: chr7:125879632:125879633:+_ENSMUSG00000033904_ENSMUST00000106557|mus_mus|motif|central (ssRNA)
RNA: GGGAGUUCUACAGUCCGACGAUCUAUUACUAUGUUCUCUGAGAUCCGGAUUGCUUAUUAAAUAGCCCUUUAUUCUCUCCGGUGUAAAGCAUGCUAGAAAAAGAAGACUGAAAAAACAAACAAUAUAGACUAACUAGAACUAGCCAACAGAGGAUUGAGCAUCA
B6: chr2:15737528:15737529:+_ENSG00000079785_ENST00000233084|hu_hu|FALSE|FALSE (ssRNA)
RNA: GGGAGUUCUACAGUCCGACGAUCUUUAAUUGUUGUUUUUCCUUUUUUGCCUUCCUGUUGGUCUUUCAGAGUUUCAUAAACUAUCUGGAUAACUGGAAUACUAAAAGCACCAGUUUUGCCACUUCCUGUUUCUGCAGCCAUAAGCAACAGAGGAUUGAGCAUCA
B7: 36003783_36003903_808_CDS_ENSMUSG00000031529_ENSMUST00000033929|mouse|control|control (ssRNA)
RNA: GGGAGUUCUACAGUCCGACGAUCUUCAUGCAGUGGUGUAUAGUUCCAGUUAUCUCUGGCAUUCGGAUCUGCUCCUUGACACAGUAACAGACUCACAACCUCAGCAUGGCCGAAAGAGCAGGCAUUAUGAAGUGGGAUGAGACCCAACAGAGGAUUGAGCAUCA
B8: chr18:13845789:13845790:-_ENSMUSG00000024420_ENSMUST00000025288|mus_mus|motif|central (ssRNA)
RNA: GGGAGUUCUACAGUCCGACGAUCAGAACCAUGGGGCAGUGACCCUGCGUUGUGAUGCUGGAGAUGUGGCUGUCACAGGCGGGUCCAUUGGUGACAAGGGGUCACACAUCCAUCAGUCCAGGUUGCAUUUUUCUUACCUCAAAGCAACAGAGGAUUGAGCAUCA
B9: chr12:111929536:111929537:-_ENSMUSG00000021270_ENSMUST00000094361|mus_mus|FALSE|FALSE (ssRNA)
RNA: GGGAGUUCUACAGUCCGACGAUCUAAGAUGUAAUUUAAGCCAUCUUAAUUUGGUCUCCUAAGGAAUCCAGCUCAACAGCUAAACACUUCAGACCAGAGCAAACAUGAACAGUAGGUUACGUUACGUCUUAUAACAAACGCUCUCAACAGAGGAUUGAGCAUCA
B10: chr2:122485053:122485054:-_ENSG00000155438_ENST00000285814|hu_hu|FALSE|FALSE (ssRNA)
RNA: GGGAGUUCUACAGUCCGACGAUCUCAACUUUCUAUCCAGGCAGAGUAAACUAAGGAGAGCUAUGAAAUAUCAAAAGAAAACUAGAGGCCAGGACAAAGAGGCAAUGUCAGCCAAGCCACUGCAAGAUGGUAUGCACCCCUGUACAACAGAGGAUUGAGCAUCA
B11: chr1:63223577:63223578:+_ENSMUSG00000025967_ENSMUST00000129339|mus_mus|motif|central (ssRNA)
RNA: GGGAGUUCUACAGUCCGACGAUCAAAGGUCAAGGUCCGUUCCUAGUCUCGGUCCUCCGCGUACCACUGCGACUUGGUAACGGAAGGGCCCACAGGUCGUCCGCCGGCCUUCCCUUGUCUUUGGAAGAAAAUUAAUAAAGGAGGCAACAGAGGAUUGAGCAUCA
B12: chr16:70566459:70566460:+_ENSG00000189091_ENST00000302516|hu_hu|FALSE|FALSE (ssRNA)
RNA: GGGAGUUCUACAGUCCGACGAUCAAGGAAGUUGCCGUGUUCCUCCAAAGGUUCACUGUAUUUUCGGACCACAUGAUUUAAACCAAGGUCUAGCUCAUAGAAAGUAAGUGUCUGCUGGGUAUUAGCUGCUGCUUCCCCUGUUGGCAACAGAGGAUUGAGCAUCA
B13: chr2:48026839:48026840:+_ENSG00000116062_ENST00000540021|hu_hu|hu_hu_hu_mus_False|1_38 (ssRNA)
RNA: GGGAGUUCUACAGUCCGACGAUCAUAGUGAGCCACUAGCGUCCUAAAUCUGGAACAGUGGCGGUCAUCCGAAAACUGGCCGAUGAAAAACUUGCCCAGUGAAGUAUCCACAAAGCAAACACCAUACACACGAGUGUGGCCAGACAACAGAGGAUUGAGCAUCA
B14: chr12:124105631:124105632:-_ENSG00000111361_ENST00000424014|hu_hu|FALSE|FALSE (ssRNA)
RNA: GGGAGUUCUACAGUCCGACGAUCUCUUUCAUAGAGUUUAUUUGAAAAGAUGCUGAAUUUAUUCCCAAGUAUAAUUUUAAAAAGCUGUUUAGGACCCAAACAUAUUUAAACAUCUCUUACACAUACAGAAUUUCAGUUUACAAACAACAGAGGAUUGAGCAUCA

The list shows a part of the results.

In the test the target is T1, UNK ZnF1-3. The test can be described thus: nsRBNS (natural sequence RNA bind-n-seq); RBNS binding buffer (assumed for nsRBNS): 25 mM Tris pH 7.5, 150 mM KCl, 3 mM MgCl2, 0.01% Triton X-100, 500 ug/ml BSA, 20 U/ml SUPERase-In, 4 C; UNK is unkempt and MSI1 is Musashi-1; names of the RNAs are library labels; protein concentration not given here; high values mean tight binding.
On to B1, for which the binding signal came to 0.768 enrichment R.

The molecule B2 showed a binding signal of 1.56 enrichment R.

Take B3: the binding signal was 1.04 enrichment R.

B4: the binding signal is 1.05 enrichment R.

B5 returned a binding signal of 1.58 enrichment R.

In turn, B6 returned a binding signal of 0.539 enrichment R.

Molecule B7 returned a binding signal of 1.14 enrichment R.

The molecule B8 displayed a binding signal of 0.819 enrichment R.

For the molecule B9, the binding signal was determined as 0.648 enrichment R.

Consider B10, for which the binding signal was 1.61 enrichment R.

B11 had a binding signal of 0.526 enrichment R.

For the molecule B12, the binding signal was 0.727 enrichment R.

In turn, B13 yielded a binding signal of 0.934 enrichment R.

With B14, the binding signal stood at 1.01 enrichment R.

Source of the values: paper PMC12136788.
